# In PubChem BioAssay AID2147 (National Center for Advancing Translational Sciences (NCATS), 2009):
# Out of some 230,000 compounds screened, about 3,600 (1.6%) were called active. The inconclusive results got no clear call from the source; some entries with a clear call stand among them for comparison. Calls come from the whole dose curve; as a rule, active = well fitted inhibition curve with a large enough effect (not every such curve was filed as active); inconclusive = small, poorly fitted or top-dose-only effect, or another doubt; inactive = no such curve, though single readings can be large or run the other way. Potencies of inconclusive entries are doubtful fits and often do not repeat.
# Molecular target: Lysine-specific demethylase 4E (Homo sapiens) (UniProt B2RXH2)
# Sequence of UniProt B2RXH2 (B2RXH2 whole entry, looked up, the tested form may be a part): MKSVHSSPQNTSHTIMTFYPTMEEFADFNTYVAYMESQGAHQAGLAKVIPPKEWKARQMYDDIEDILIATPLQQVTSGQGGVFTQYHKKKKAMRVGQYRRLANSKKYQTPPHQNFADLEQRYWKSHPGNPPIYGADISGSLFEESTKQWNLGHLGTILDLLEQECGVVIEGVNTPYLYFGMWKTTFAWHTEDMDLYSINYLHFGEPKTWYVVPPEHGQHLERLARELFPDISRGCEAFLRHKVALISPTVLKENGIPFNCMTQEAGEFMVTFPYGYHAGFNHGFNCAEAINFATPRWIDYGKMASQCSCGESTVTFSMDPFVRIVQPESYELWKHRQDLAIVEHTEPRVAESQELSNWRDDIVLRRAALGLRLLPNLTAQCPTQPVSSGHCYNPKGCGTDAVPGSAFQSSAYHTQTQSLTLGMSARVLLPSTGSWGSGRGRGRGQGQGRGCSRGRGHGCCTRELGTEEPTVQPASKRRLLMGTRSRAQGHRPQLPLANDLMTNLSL
# Experiment: qHTS Assay for Inhibitors of Human Jumonji Domain Containing 2E (JMJD2E)
# Conditions: JMJD2E catalytic domain, FDH-coupled NADH fluorescence (FDH is formaldehyde dehydrogenase); series mostly up to 57.1 µM
# Note: nearly all actives have a fitted effect of over 50% in size.
# Potency is the fitted concentration of half-maximal effect; tags give direction and shape of the fitted curve.
row,Structure (SMILES),Potency
1,O=C(/C=C/c1ccc2c(c1)OCO2)c1cccs1,active: 22.4 µM
2,COc1ccc(NC(=O)c2ccccc2Sc2ccc(NC(C)=O)nc2)cc1,"inconclusive: 39.8 µM [inhibitor, single point]"
3,O=C(NC(=S)N1CCOCC1)c1ccc([N+](=O)[O-])cc1,"inconclusive: 39.8 µM [inhibitor, single point]"
4,C=C(Cl)COc1ccc2c(CCCC)cc(=O)oc2c1,"inconclusive: 31.6 µM [inhibitor, single point]"
5,O=C(NCC1CCCO1)c1cc2c(=O)[nH]c3ccccc3c2s1 (stereo not given),"inconclusive: 25.1 µM [inhibitor, partial curve]"
6,COc1ccc(C(=O)COC(=O)CCN=C2NS(=O)(=O)c3ccccc32)cc1OC,"inconclusive: 35.5 µM [inhibitor, single point]"
7,COc1ccc(-c2cn3ccccc3n2)cc1,"inconclusive: 31.6 µM [inhibitor, partial curve]"
8,CC1CC(C)(C)NC(=S)O1 (stereo not given),inactive
9,COc1cccc(C2CCCCN2Cc2nc(-c3ccc(C)o3)oc2C)c1 (stereo not given),"inconclusive: 20 µM [inhibitor, partial curve]"
10,Cc1ccc(N/N=C2\CS(=O)(=O)N(C)c3ccsc32)cc1,inactive
11,CCOC(=O)c1cc(CC)sc1/N=C/c1c(O)ccc2ccccc12,"inconclusive: 25.1 µM [inhibitor, single point]"
12,O=C(Cn1ccc(C(F)(F)F)n1)N/N=C/c1ccc(N2CCOCC2)cc1,"inconclusive: 28.2 µM [inhibitor, partial curve]"
13,CCOCC(=O)Nc1nc2c(s1)C(=O)CC(C)(C)C2,"inconclusive: 39.8 µM [inhibitor, single point]"
14,CC(C)Sc1nc2c(c(=O)n(C)c(=O)n2C)n1Cc1ccc(Cl)cc1,inactive
15,Cc1[nH]c2ccccc2c1-c1nc2ccccc2[nH]1,"inconclusive: 35.5 µM [inhibitor, single point]"
16,Cc1cc(/C=N/Nc2nc(N)ncc2[N+](=O)[O-])c(C)n1-c1ccccc1F,inactive
17,O=C(Nc1ccc(Br)cn1)c1coc(=O)c(Br)c1,"inconclusive: 28.2 µM [inhibitor, partial curve]"
18,O=C(c1cc([N+](=O)[O-])ccc1Cl)N1CCN(c2ccccc2)CC1,inactive
19,CCC(=O)N(Cc1cc2c(C)ccc(C)c2[nH]c1=O)C1CCCCC1,"inconclusive: 28.2 µM [inhibitor, single point]"
20,COc1ccc(-c2nc3nc(C)cc(C)n3n2)cc1,"inconclusive: 7.08 µM [inhibitor, partial curve]"
